Measured values published in paper PMC4336329 (PLoS ONE, 2015).
The campaign covered roughly 310,000 compounds. About 14,000 (4.5%) showed an effect of 50% or more. The effect is printed as a negative number. The list shows a part of the results.

What follows are compounds tested against human ether-à-go-go-related gene (hERG) potassium channel (human, UniProt Q12809) (assay: primary screen, population patch clamp on CHO cells stably expressing hERG).
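Note: peak tail current of the secondary pulse compared with the same well before compound.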

Chain of human ether-à-go-go-related gene (hERG) potassium channel (Q12809 whole entry, looked up): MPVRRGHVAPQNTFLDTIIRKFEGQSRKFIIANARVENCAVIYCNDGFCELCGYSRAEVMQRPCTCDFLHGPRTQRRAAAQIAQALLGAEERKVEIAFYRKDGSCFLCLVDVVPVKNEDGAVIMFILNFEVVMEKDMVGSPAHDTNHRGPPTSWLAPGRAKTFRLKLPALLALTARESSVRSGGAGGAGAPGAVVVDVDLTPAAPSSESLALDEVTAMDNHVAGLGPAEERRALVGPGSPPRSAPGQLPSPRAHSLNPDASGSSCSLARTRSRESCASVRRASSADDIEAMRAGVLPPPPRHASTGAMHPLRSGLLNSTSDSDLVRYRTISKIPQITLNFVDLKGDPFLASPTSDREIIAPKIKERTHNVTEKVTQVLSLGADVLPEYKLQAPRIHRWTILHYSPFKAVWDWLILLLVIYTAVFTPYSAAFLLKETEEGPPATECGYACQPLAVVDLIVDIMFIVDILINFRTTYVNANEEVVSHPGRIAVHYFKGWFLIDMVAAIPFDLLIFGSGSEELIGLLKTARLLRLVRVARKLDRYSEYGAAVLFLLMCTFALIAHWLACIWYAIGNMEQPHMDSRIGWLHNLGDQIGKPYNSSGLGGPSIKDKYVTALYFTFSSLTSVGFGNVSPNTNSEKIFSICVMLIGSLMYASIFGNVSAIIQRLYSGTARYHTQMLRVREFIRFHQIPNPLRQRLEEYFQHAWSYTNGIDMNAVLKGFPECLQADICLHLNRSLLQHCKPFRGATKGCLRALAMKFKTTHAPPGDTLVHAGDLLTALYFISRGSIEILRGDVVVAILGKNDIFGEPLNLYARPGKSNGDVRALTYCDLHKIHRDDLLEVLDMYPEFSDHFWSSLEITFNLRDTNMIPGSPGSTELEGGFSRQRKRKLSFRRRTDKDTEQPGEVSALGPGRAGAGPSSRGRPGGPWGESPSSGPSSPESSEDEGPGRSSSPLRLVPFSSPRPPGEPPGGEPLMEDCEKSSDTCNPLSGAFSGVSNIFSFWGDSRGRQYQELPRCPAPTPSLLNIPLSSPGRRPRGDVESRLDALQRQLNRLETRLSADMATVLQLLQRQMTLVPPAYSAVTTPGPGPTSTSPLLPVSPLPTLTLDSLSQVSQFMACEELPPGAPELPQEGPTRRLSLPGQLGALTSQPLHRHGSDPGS

Point of comparison: `COc1ccc(-c2nc3ccccn3c2CN2CCN(c3ccccc3F)CC2)cc1`, “hERG current change (%, negative = inhibition) at 10uM” value 7.02%. Against it:
- COc1ccc(CN2CCN(C(=O)CCC(=O)Nc3nnc(CC(C)C)s3)CC2)cc1F — lower, -17.9%
- COc1ccc(-c2cc(-c3n[nH]c(=S)n3-c3cc(OC)ccc3OC)[nH]n2)cc1 — higher, 13.9%
- O=C(COc1ccccc1)N=C1SC2CS(=O)(=O)CC2N1c1ccccc1 (stereo not shown) — higher, 9.3%
- N#CCc1c(C#N)c(N)nc(Nc2ccccc2)c1C#N — higher, 23.9%
- CCCCOC(=O)/C(=C/C=C/c1ccccc1)NC(=O)c1ccccc1 — lower, -34.2%
- Oc1ccc(/C=N/NC(=S)Nc2cccnc2)cc1O — higher, 18.1%
- Cn1c(=O)[nH]c(=O)c2c1ncn2CCN1CCOCC1 — higher, 17.8%
- Cc1ccc(Cl)cc1C1=CC(=O)C[C@H](c2ccc(F)cc2)C1 — lower, 3.6%
- S=C(NCc1ccco1)Nc1ccc(Cl)c(Cl)c1 — lower, -2.14%
- CCCc1ccc(OCC(O)CN2CCN(c3ccccc3)CC2)cc1.Cl (stereo not shown) — lower, -46.5%
- CCC(C)NC(=O)c1c(N)n(CC2CCCO2)c2nc3ccccc3nc12 (stereo not shown) — lower, 3.05%
- COc1ccc(/C=N/NC(=O)CC(=O)NC2CCCCC2)cc1 — lower, 5.89%
- O=C(CN1CCC(C(=O)c2ccc(F)cc2)CC1)Nc1ccc(F)cc1 — lower, -64.7%
- COc1ccc(NC(=S)NN2CCN(C)CC2)cc1OC — lower, 4.78%
- COCCNC(=O)Cn1cc2c(n1)CCC(C)C2 (stereo not shown) — higher, 21.2%
- O=C1C(=C(O)c2ccccc2)C(=O)c2ccccc21 — lower, -12.7%
- Cc1ccc(NC(=O)c2cc(S(=O)(=O)N3CCc4ccccc43)cn2C)cc1 — higher, 13.2%
- O=C(CSCc1ccccc1Cl)NNC(=S)Nc1ccccc1 — higher, 30.9%
- O=c1cc(O)c2c(=O)[nH]c(=O)n(-c3ccccc3)c2[nH]1 — lower, 6.7%
- COc1ccccc1NC(=S)NNC(=O)c1cc(C)nn1C — higher, 10.4%
- O=C(c1ccc2nc(N3CCOCC3)sc2c1)N1CCC(Cc2ccccc2)CC1 — lower, -63.2%
- COc1cccc2cc(-c3cc(=O)oc4ccc(OC(=O)N(C)C)cc34)oc12 — higher, 14.3%
- O=C(Cn1cnc2cc([N+](=O)[O-])ccc2c1=O)NCCc1ccc(F)cc1 — lower, -39.8%
- Cc1ccc(-c2csc3nc[nH]c(=S)c23)cc1 — higher, 11.7%
- Cc1cccc(-c2nnc(SCC(=O)N3CCOCC3)o2)c1 — higher, 18.9%
- O=C1c2ccccc2S(=O)(=O)c2cc(N3CCN(C(=O)c4ccccc4)CC3)ccc21 — lower, -26.1%
- Cc1cc(C)c(NC(=O)COC(=O)/C=C/c2cccc(C(F)(F)F)c2)c(C)c1 — lower, 5.67%
- O=C(O)c1ccccc1C(=O)Nc1cccc([N+](=O)[O-])c1 — higher, 12.3%
- COC(=O)c1ccc(NC(=S)NCc2ccco2)cc1 — lower, -4.7%
- CCCCCCSc1cccc(-c2nc3ccc(C)cn3c2NCc2ccccc2)c1.O=C(O)C(F)(F)F — lower, -6.77%
- COC(=O)c1cc[n+](CC(=O)c2ccccc2)cc1.[Br-] — lower, -3.18%
- O=c1c2ccccc2n(Cc2ccc(Cl)cc2)c(=O)n1Cc1ccco1 — lower, 4.77%
- CN(CCO)CCC(=O)NC1(C)CS(=O)(=O)CC1S(=O)(=O)[O-].[Na+] (stereo not shown) — lower, -2.92%
- CCCn1c(NCc2cccc(OC)c2OC)nc2ccccc21 — lower, -13.9%
- CCOc1ccc(N2CC(C(=O)NCc3cccc(C)c3)CC2=O)cc1 (stereo not shown) — lower, -37.5%
- CC(C)N(CC(=O)Nc1ccc(Cl)cc1C(F)(F)F)C(=O)CCl — lower, 6.07%
- COc1ccccc1-c1nnc2sc(-c3cc4ccccc4o3)nn12 — lower, -5.14%
- O=C1ON=C(c2ccccc2)/C1=C/c1ccco1 — lower, 1.09%
- Cc1nn2c(-c3ccc(F)cc3)ccnc2c1Cl — higher, 17%
- Cc1nn(C)c(C(=O)N/N=C/c2ccc(Br)cc2)c1Cl — higher, 7.93%
- C=C(C)Cn1c(SCC(=O)N/N=C/c2c(O)ccc3ccccc23)nc2ccccc2c1=O — higher, 12.9%
- CCOC(=O)N1CCC(Nc2ncnc3c2cnn3-c2ccc(C)cc2C)CC1 — lower, -4.1%
- CCCOc1ccc([N+](=O)[O-])c(N)c1 — lower, 4.27%
- COc1ccc(S(=O)(=O)N2CCOC23CCN(S(C)(=O)=O)CC3)cc1 — lower, 4.71%
- Cc1c(Cl)c([N+](=O)[O-])nn1CCCC(=O)Nc1sc2c(c1C(N)=O)CCC(C)C2 (stereo not shown) — lower, 3.85%
- Cc1c(N)cccc1-n1cccc1 — higher, 16.2%
- CCn1cnc2c1c(=O)n(CC(=O)NCC(F)(F)F)c(=O)n2Cc1ccccc1 — higher, 26.6%
- Cc1ccc(C)c(NC(=S)NC(C)C(c2ccccc2)N2CCN(C)CC2)c1 (stereo not shown) — lower, -48%
- O=C(Cc1ccc(Cl)cc1Cl)Nc1ccncc1Cl — lower, 6.3%
- O=C(Cn1cnc(S(=O)(=O)N2CCCC2)c1)Nc1ccc(OC(F)(F)F)cc1 — higher, 22.5%
- CC(Oc1ccc(Cl)cc1)C(=O)NNC(=S)NC(=O)c1ccco1 (stereo not shown) — higher, 8.25%
- O=C(Nc1ccccc1)c1cc(S(=O)(=O)N2CCSCC2)ccc1Cl — lower, -13.5%
- CCN1C(=O)/C(=C\c2ccc(F)cc2)N=C1SCC(=O)NCc1ccco1 — lower, -13%
- Cc1c(Cl)cccc1NC(=O)CCN1C(=O)C2CC=CCC2C1=O (stereo not shown) — higher, 9.81%
- Cc1ccc(C(=O)N2CCN(c3ccc([N+](=O)[O-])cc3)CC2)o1 — lower, -80.2%
- O=C(NNC(=S)Nc1ccc(F)cc1)c1ccccc1OC(F)F — higher, 11.1%
- Cc1ccc(C(=O)CSc2nc(-c3ccccc3)cc(=O)[nH]2)cc1 — lower, -26.1%
